B1: PhoQ; a variant is named by its letters at X, in order, P23837 (parent)
chain: MKKLLRLFFPLSLRVRFLLATAAVVLVLSLAYGMVALIGYSVSFDKTTFRLLRGESNLFYTLAKWENNKLHVELPENIDKQSPTMTLIYDENGQLLWAQRDVPWLMKMIQPDWLKSNGFHEIEADVNDTSLLLSGDHSIQQQLQEVREDDDDAEMTHSVAVNVYPATSRMPKLTIVVVDTIPVELKSSYMVWSWFIYVLSANLLLVIPLLWVAAWWSLRPIEALAKEVRELEEHNRELLNPATTRELTSLVRNLNRLLKSERERYDKYRTTLTDLTHSLKTPLXXLQXXLRSLRSEKMSVSDAEPVMLEQISRISQQIGYYLHRASMRGGTLLSRELHPVAPLLDNLTSALNKVYQRKGVNISLDISPEISFVGEQNDFVEVMGNVLDNACKYCLEFVEISARQTDEHLYIVVEDDGPGIPLSKREVIFDRGQRVDTLRPGQGVGLAVAREITEQYEGKIVAGESMLGGARMEVIFGRQHSAPKDE

The other results are listed elsewhere or left out. Where only a bound is given, the exact number is not on record here.

Variants of B1 are the subject of this assay. Description: enrichment ratio after two sorts for PhoP signalling (ratio (wild type AVST 3.29)); higher = more functional. As to conditions: with PhoP (E. coli).
As to MNWC, the enrichment ratio stood at 11.8.
Consider RFRM, for which the enrichment ratio was no more than 0.25.
Then YMKE, with no more than 0.25.
As for IHDY, the enrichment ratio is no more than 0.25.
Take YLLD: the enrichment ratio was no more than 0.25.
As for INYP, the enrichment ratio is no more than 0.25.
Consider VDRF, for which the enrichment ratio is no more than 0.25.
Then FAFW, with no more than 0.25; and YLCT, with 1.05; and PMLS, with no more than 0.25.
To KHVD belongs no more than 0.25; to VRNT, no more than 0.25.
Then AYAM, with 0.252; and RYPG, with no more than 0.25.
For KSHC, the enrichment ratio is no more than 0.25.
For the variant PNVP, the enrichment ratio was no more than 0.25.
Then HTLA, with no more than 0.25; and YNKG, with no more than 0.25; and SVSW, with 4.86.
Then WMWW, with no more than 0.25.
Then TDSN, with 4.25.
Consider RKRP, for which the enrichment ratio was no more than 0.25.
To MNNL belongs 0.29.
Consider FART, for which the enrichment ratio is no more than 0.25.
Then IDSI, with no more than 0.25; and MTSP, with no more than 0.25; and ELLH, with no more than 0.25.
Then FQNQ, with no more than 0.25.
On to KSIW, for which the enrichment ratio is no more than 0.25.
To ERRS belongs no more than 0.25; to YWLI, no more than 0.25.
Then FRHC, with no more than 0.25; and VLFQ, with no more than 0.25; and MVHK, with no more than 0.25.
To AYYG belongs no more than 0.25; to EMHK, no more than 0.25; to NIQS, no more than 0.25.
Regarding YNQP, the enrichment ratio is no more than 0.25.
To HRLV belongs no more than 0.25; to FLKR, no more than 0.25; to KVCF, no more than 0.25.
Regarding PLVH, the enrichment ratio was no more than 0.25.
To WNQG belongs no more than 0.25; to SATH, 7.36; to AMAG, 3.29.
Regarding SFAI, the enrichment ratio was no more than 0.25.
To THTE belongs no more than 0.25; to FTVT, no more than 0.25; to IGHR, no more than 0.25.
Turning to MLHN, the enrichment ratio is no more than 0.25.
Then NLAP, with no more than 0.25; and VAKE, with no more than 0.25; and EGHE, with no more than 0.25.
To YARW belongs no more than 0.25; to AFMS, no more than 0.25.
On to QMTL, for which the enrichment ratio is no more than 0.25.
To VPFT belongs no more than 0.25.
Then VRKW, with no more than 0.25; and EDGN, with no more than 0.25.
To TNSC belongs 17.3; to IRVC, no more than 0.25.
As to ANGG, the enrichment ratio was no more than 0.25.
KKDR: the enrichment ratio is no more than 0.25.
To PSVF belongs no more than 0.25; to GMVT, no more than 0.25; to DDYV, no more than 0.25.
To QLWN belongs no more than 0.25; to YWNT, no more than 0.25.
To VGID belongs no more than 0.25; to QCKY, no more than 0.25; to KYAW, no more than 0.25.
For the variant LQPK, the enrichment ratio is no more than 0.25.
To GKAN belongs no more than 0.25; to RKDR, no more than 0.25; to LRQM, no more than 0.25.
To NETF belongs no more than 0.25.
To DWYS belongs no more than 0.25.
As for KPKL, the enrichment ratio is no more than 0.25.
Then DLNK, with no more than 0.25.
Then IWSL, with no more than 0.25; and RKPL, with no more than 0.25; and ATFS, with no more than 0.25.
To MCSE belongs no more than 0.25; to TVSY, 10.4.
Take DKSM: the enrichment ratio was no more than 0.25.
Regarding IQRT, the enrichment ratio was no more than 0.25.
Then QFST, with no more than 0.25.
As to WEKF, the enrichment ratio was no more than 0.25.
With NAPY, the enrichment ratio is no more than 0.25.
Then PDRR, with no more than 0.25.
Consider LHSW, for which the enrichment ratio was no more than 0.25.
On to VIVK, for which the enrichment ratio is no more than 0.25.
In the case of MTFR, the enrichment ratio is no more than 0.25.
Then KRTS, with no more than 0.25.
Regarding VESS, the enrichment ratio was 0.375.
Then FDLF, with no more than 0.25; and GKGG, with no more than 0.25.
To GSWF belongs no more than 0.25.
To GFEW belongs no more than 0.25.
Take HQNE: the enrichment ratio was no more than 0.25.
To NTGY belongs no more than 0.25; to SHYT, no more than 0.25; to QPFL, no more than 0.25.
Regarding DCKD, the enrichment ratio was no more than 0.25.
To GLSH belongs no more than 0.25; to TWRQ, no more than 0.25; to LNHD, no more than 0.25.
Then QTHK, with no more than 0.25; and EQHY, with no more than 0.25.
Then RSFD, with no more than 0.25.
With PPAE, the enrichment ratio was no more than 0.25.
For the variant PMKK, the enrichment ratio was no more than 0.25.
Turning to AKKI, the enrichment ratio was no more than 0.25.
To TTVR belongs no more than 0.25.
For the variant NYIE, the enrichment ratio was no more than 0.25.
To AHNV belongs no more than 0.25; to PQYK, no more than 0.25; to DEVN, no more than 0.25.
With AIRL, the enrichment ratio was no more than 0.25.
Then TAQE, with 1.65; and KIWN, with no more than 0.25.
Then MVMV, with no more than 0.25; and VKAT, with no more than 0.25.
To QIEW belongs no more than 0.25; to QDFA, no more than 0.25.
With LNVH, the enrichment ratio was no more than 0.25.
Turning to FFQD, the enrichment ratio was no more than 0.25.
To VAQH belongs no more than 0.25; to YSCH, no more than 0.25.
Then FMHF, with no more than 0.25; and YSYH, with no more than 0.25; and HDKV, with no more than 0.25.
To PCPK belongs 1.24; to SNMM, 10.6; to WFRW, no more than 0.25.
For the variant EQSP, the enrichment ratio was no more than 0.25.
To HNDG belongs no more than 0.25; to GCYH, no more than 0.25; to KKCV, no more than 0.25.
To LPWA belongs no more than 0.25; to SRNT, no more than 0.25; to WFLW, no more than 0.25.
To YVAI belongs no more than 0.25.
KANL: the enrichment ratio is no more than 0.25.
To AGMR belongs no more than 0.25; to RLYV, no more than 0.25.
To TTLM belongs 16.5; to EMHP, no more than 0.25.
Then VDYR, with no more than 0.25.
As to KMEY, the enrichment ratio is no more than 0.25.
Take LMTL: the enrichment ratio is no more than 0.25.
For SGHL, the enrichment ratio turned out to be 0.955.
Regarding HRKI, the enrichment ratio was no more than 0.25.
